The text below walks through data of the antibiotic and cytotoxicity screens of Wong et al. (2023).

Some of the results follow.

Experiment [1] deals with HSkMC (human skeletal muscle cells). In words: cytotoxicity call (relative viability < 0.9). To be noted: 10 µM.
Experiment [2] deals with HepG2. The experiment in a line: cytotoxicity call (relative viability < 0.9). To be noted: 10 µM.
In experiment [3] the test system is S. aureus RN4220. In words: growth inhibition call (relative growth <= 0.2). To be noted: 50 µM.

As to `C[C@H](CO)N1C[C@H](C)[C@@H](CN(C)C(=O)Nc2ccccc2)Oc2ccc(NC(=O)Nc3ccc(C(F)(F)F)cc3)cc2CC1=O`, the cytotoxicity call in experiment [1] and in experiment [2] was “inactive” in each case. In addition, the growth inhibition call in experiment [3] is “inactive”.

Take `CO[C@@H]1CN(C)C(=O)c2cc(NC(=O)CC(F)(F)F)ccc2OC[C@H](C)N(S(=O)(=O)c2cn(C)cn2)C[C@H]1C`: the cytotoxicity call in experiment [1] and in experiment [2] was “inactive” in each case. Besides, the growth inhibition call in experiment [3] was “inactive”.

On to `C[C@H](C(=O)N(C)C[C@@H]1OCc2ccccc2-c2c(n(C)c3ccccc23)C(=O)N([C@H](C)CO)C[C@H]1C)c1ccccc1`, for which the cytotoxicity call in experiment [1] and in experiment [2] was “inactive” throughout. Moreover, in experiment [3], the growth inhibition call is “inactive”.

Take `CC(C)NC(=O)N(C)C[C@H]1Oc2ccc(NS(=O)(=O)c3cccs3)cc2C(=O)N([C@@H](C)CO)C[C@H]1C`: the cytotoxicity call in experiment [1] and in experiment [2] was “inactive” throughout. Besides, in experiment [3], the growth inhibition call is “inactive”.

With `C[C@H](O)C#Cc1ccc2c(c1)O[C@@H](CN(C)C)[C@@H](C)CN([C@H](C)CO)S2(=O)=O`, the cytotoxicity call in experiment [1] and in experiment [2] was “inactive” throughout. The growth inhibition call in experiment [3] is “inactive”.

Take `NC(=O)CCNCc1ccccc1`: the cytotoxicity call in experiment [1] and in experiment [2] was “inactive” each time. Besides, in experiment [3], the growth inhibition call was “inactive”.

`Nc1ncn([C@@H]2O[C@H](CO)[C@@H](O)[C@H]2O)c(=O)n1`: the cytotoxicity call in experiment [1] and in experiment [2] was “active” each time. Further, in experiment [3], the growth inhibition call was “inactive”.

As for `c1coc(CNC[C@H]2Cn3nncc3CO2)c1`, the cytotoxicity call in experiment [1] and in experiment [2] was “inactive” each time. Moreover, in experiment [3], the growth inhibition call is “inactive”.

For `O=C(C[C@H]1C[C@@H]2c3cc(NC(=O)Cc4ccncc4)ccc3O[C@@H]2[C@@H](CO)O1)NCCN1CCCCC1`, the cytotoxicity call in experiment [1] and in experiment [2] was “inactive” throughout. In experiment [3], the growth inhibition call was “inactive”.

For `CC(C)NC(=O)N(C)C[C@H]1Oc2c(NS(=O)(=O)c3ccccc3)cccc2C(=O)N([C@@H](C)CO)C[C@H]1C`, the cytotoxicity call in experiment [1] and in experiment [2] was “inactive” throughout. In addition, the growth inhibition call in experiment [3] was “inactive”.

In the case of `Nc1ncnc2c1c(I)cn2[C@H]1O[C@@H](CO)[C@@H](O)[C@@H]1O`, the cytotoxicity call in experiment [1] was “inactive”. Further, the cytotoxicity call in experiment [2] is “active”. Besides, the growth inhibition call in experiment [3] was “inactive”.

Regarding `CC(C)NC(=O)N(C)C[C@@H]1Oc2cc(-c3ccccc3F)ccc2S(=O)(=O)N([C@@H](C)CO)C[C@H]1C`, the cytotoxicity call in experiment [1] and in experiment [2] was “inactive” throughout. Also, the growth inhibition call in experiment [3] is “inactive”.

With `Cc1ccc(S(=O)(=O)N(C)C[C@@H]2OCCCC[C@H](C)Oc3ccc(NS(=O)(=O)c4ccc(Cl)cc4)cc3C(=O)N([C@@H](C)CO)C[C@H]2C)cc1`, the cytotoxicity call in experiment [1] and in experiment [2] was “inactive” in each case. Moreover, in experiment [3], the growth inhibition call is “inactive”.

As for `Cc1ccc(S(=O)(=O)N(C)C[C@@H]2OCCCC[C@@H](C)Oc3ccc(NS(=O)(=O)c4ccc(F)cc4)cc3C(=O)N([C@H](C)CO)C[C@@H]2C)cc1`, the cytotoxicity call in experiment [1] and in experiment [2] was “inactive” throughout. Also, the growth inhibition call in experiment [3] is “inactive”.

Turning to `C[C@H](CO)N1C[C@H](C)[C@H](CN(C)Cc2ccc(-c3ccccc3)cc2)Oc2ccc(NC(=O)Nc3ccc4c(c3)OCO4)cc2C1=O`, the cytotoxicity call in experiment [1] and in experiment [2] was “inactive” in each case. In experiment [3], the growth inhibition call is “inactive”.

As to `Cn1ccc(C(=O)N2CCC3(CCOC[C@@H]3NS(C)(=O)=O)CC2)n1`, the cytotoxicity call in experiment [1] and in experiment [2] was “inactive” in each case. In addition, the growth inhibition call in experiment [3] was “inactive”.

On to `C[C@@H]1CCCCO[C@@H](CN(C)Cc2ccc(Cl)c(Cl)c2)[C@@H](C)CN([C@H](C)CO)C(=O)c2cc(NC(=O)CCC(F)(F)F)ccc2O1`, for which the cytotoxicity call in experiment [1] and in experiment [2] was “inactive” in each case. For the same molecule, the growth inhibition call in experiment [3] was “inactive”.

As for `C[C@@H]1CN([C@H](C)CO)C(=O)c2ccccc2-c2ccccc2CO[C@@H]1CN(C)C(=O)Nc1ccc(-c2ccccc2)cc1`, the cytotoxicity call in experiment [1] and in experiment [2] was “inactive” each time. Further, the growth inhibition call in experiment [3] is “inactive”.

Turning to `OCC1OC(OC2C(CO)OC(O)(CO)C2O)C(O)C(O)C1O` (configuration not stated), the cytotoxicity call in experiment [1] and in experiment [2] was “inactive” throughout. Besides, in experiment [3], the growth inhibition call was “inactive”.

With `C[C@@H]1CCCCO[C@@H](CN(C)Cc2ccccc2)[C@@H](C)CN([C@@H](C)CO)C(=O)c2cc(NC(=O)Nc3ccc(F)cc3)ccc2O1`, the cytotoxicity call in experiment [1] and in experiment [2] was “inactive” each time. Besides, the growth inhibition call in experiment [3] is “inactive”.

Consider `C[C@H](CO)N1C[C@H](C)[C@@H](CN(C)Cc2ccncc2)Oc2ccc(NC(=O)CCCN(C)C)cc2CC1=O`, for which the cytotoxicity call in experiment [1] and in experiment [2] was “inactive” throughout. For the same molecule, the growth inhibition call in experiment [3] is “inactive”.

For the molecule `C[C@H](CO)N1C[C@H](C)[C@H](CN(C)S(C)(=O)=O)Oc2c(NC(=O)Nc3ccc(C(F)(F)F)cc3)cccc2C1=O`, the cytotoxicity call in experiment [1] and in experiment [2] was “inactive” throughout. Besides, in experiment [3], the growth inhibition call was “inactive”.

For the molecule `CCOC(=O)c1c(C)oc(N)c1C(N)=O`, the cytotoxicity call in experiment [1] and in experiment [2] was “inactive” each time. Also, the growth inhibition call in experiment [3] was “inactive”.

As for `OC[C@H]1CN(Cc2ccccc2)CCO1`, the cytotoxicity call in experiment [1] and in experiment [2] was “inactive” each time. The growth inhibition call in experiment [3] is “inactive”.

Take `C[C@H]1CN([C@@H](C)CO)C(=O)c2cccc(NC(=O)c3ccc(-c4nccs4)cc3)c2O[C@H]1CN(C)S(=O)(=O)c1ccc(Cl)cc1`: the cytotoxicity call in experiment [1] and in experiment [2] was “inactive” in each case. The growth inhibition call in experiment [3] is “inactive”.

On to `C[C@@H]1CN([C@@H](C)CO)S(=O)(=O)c2ccc(-c3cncnc3)cc2O[C@H]1CN(C)C(=O)NC1CCCC1`, for which the cytotoxicity call in experiment [1] and in experiment [2] was “inactive” each time. In addition, the growth inhibition call in experiment [3] is “inactive”.

As to `O=C(C[C@H]1CC=CC[C@H](Cc2ccc(F)cc2)C(=O)OC[C@H](Cc2c[nH]c3ccccc23)NC1=O)NCCO`, the cytotoxicity call in experiment [1] and in experiment [2] was “inactive” in each case. Also, the growth inhibition call in experiment [3] is “inactive”.

`C[C@@H]1CCCCO[C@@H](CN(C)C(=O)Cc2ccccc2)[C@@H](C)CN([C@@H](C)CO)C(=O)c2cc(NC(=O)NC3CCCCC3)ccc2O1`: the cytotoxicity call in experiment [1] and in experiment [2] was “inactive” each time. Further, the growth inhibition call in experiment [3] was “inactive”.

Regarding `COc1ccc(CN(C)C[C@H]2OCCCC[C@H](C)Oc3ccc(NC(=O)CCC(F)(F)F)cc3C(=O)N([C@H](C)CO)C[C@H]2C)cc1`, the cytotoxicity call in experiment [1] is “inactive”. The cytotoxicity call in experiment [2] is “active”. Besides, the growth inhibition call in experiment [3] was “inactive”.
